{
  "source": "PubChem BioAssay AID504466",
  "about": "(National Center for Advancing Translational Sciences (NCATS), 2011)",
  "note": "Among all 330,000 compounds or so, about 4,200 (1.3%) were called active. The shares of active, inactive and inconclusive entries below differ from those in the screen. Calls come from the whole dose curve; as a rule, active = well fitted activation curve with a large enough effect; inconclusive = small, poorly fitted or top-dose-only effect; inactive = no such curve, though single readings can be large or run the other way. A potency beside an inconclusive call is a rough fit, not a confirmed value. Potency is the fitted concentration of half-maximal effect; tags give direction and shape of the fitted curve.",
  "data": [
    {"test": "qHTS screen for small molecules that induce genotoxicity in human embryonic kidney (HEK293T) cells expressing luciferase-tagged ELG1; note: nearly all actives have a fitted effect of over 60% in size", "details": "HEK293T ELG1-luciferase reporter, luminescence, 16 h; series mostly up to 46 µM", "how_it_was_run": "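Screening used a luciferase reporter fused to human ELG1 in HEK293T cells. Luminescence was read on a CCD plate imager after 16 hr exposure and 30 min ONE-Glo incubation.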", "values": [
      {"smiles": "COc1ccc(CCN2C(=S)NC3CC2(C)Oc2ccc([N+](=O)[O-])cc23)cc1OC", "note": "(centres undefined)", "Potency": "inactive"},
      {"smiles": "COc1ccccc1N1CCN(C2CCCN(C(=O)c3ccccn3)C2)CC1", "note": "(centres undefined)", "Potency": "inactive"},
      {"smiles": "O=C(NNC(=O)c1ccccc1O)c1cc2ccccc2o1", "Potency": "inconclusive: 7.3 µM [activator, partial curve]"},
      {"smiles": "Cc1cccc(/C=N/NC(=O)c2cc(Br)ccc2O)n1", "Potency": "inconclusive: 18.3 µM [activator, single point]"},
      {"smiles": "CN(C)c1ccc(/C=C/c2cc[n+]([O-])cc2)cc1", "Potency": "inconclusive: 18.4 µM [activator, single point]"},
      {"smiles": "Clc1ccc(-n2cc(COCc3ccccc3)nn2)cc1", "Potency": "inconclusive: 4.61 µM [activator, partial curve, poor fit]"},
      {"smiles": "CCN(C(=O)c1cc2c(=O)n3ccccc3nc2s1)C1CCCCC1", "Potency": "inconclusive: 13 µM [activator, partial curve, poor fit]"},
      {"smiles": "Cc1c(NC(=S)NC(=O)CC(C)C)c(=O)n(-c2ccccc2)n1C", "Potency": "inconclusive: 14.6 µM [activator, partial curve, poor fit]"},
      {"smiles": "CCOC(=O)c1cnc(SCc2ccc(C)cc2)nc1N", "Potency": "active: 23.1 µM"},
      {"smiles": "Brc1ccc(-c2nc(N/N=C/c3cccnc3)c3ccccc3n2)cc1", "Potency": "inconclusive: 1.16 µM [activator, partial curve]"},
      {"smiles": "CC(=O)Nc1ccc2c(COC(=O)[C@@H](NS(=O)(=O)c3ccc(C)cc3)C(C)C)cc(=O)oc2c1", "Potency": "inactive"},
      {"smiles": "CCCn1nnnc1NCc1ccc(C(C)C)cc1", "Potency": "inactive"},
      {"smiles": "Cc1ccc(Oc2ccc(/C=N/O)cn2)cc1", "Potency": "inconclusive: 14.6 µM [activator, partial curve, poor fit]"},
      {"smiles": "Cc1ccc(/C=N/NC(=O)Nc2ccccc2)o1", "Potency": "inconclusive: 16.4 µM [activator, partial curve]"},
      {"smiles": "Cc1ccc(OC(=O)c2cccc(S(=O)(=O)N3CCCC3)c2)c(-n2nc3ccccc3n2)c1", "Potency": "inconclusive: 10.3 µM [activator, partial curve, poor fit]"},
      {"smiles": "O=Cc1cn(CC(=O)Nc2ccccc2)c2ccccc12", "Potency": "inactive"},
      {"smiles": "Cc1ccc(NC(=O)c2ccc3ccccc3n2)nc1", "Potency": "active: 9.2 µM"},
      {"smiles": "CCCCn1c(N)c(N(CCOC)C(=O)c2cc3c(s2)CCC3)c(=O)[nH]c1=O", "Potency": "inactive"},
      {"smiles": "COc1cc2c(CCNC(C)=O)c[nH]c2cc1Cl", "Potency": "inconclusive: 16.4 µM [activator, partial curve, poor fit]"},
      {"smiles": "O=C(CCn1cnc2ccccc21)N/N=C/c1ccccc1O", "Potency": "inconclusive: 32.6 µM [activator, single point]"},
      {"smiles": "Cc1cc(C)c2nc(N3CCC(C(=O)NCc4cccnc4)CC3)sc2c1", "Potency": "inactive"},
      {"smiles": "Cc1ccccc1-c1nc2ccccc2[nH]1", "Potency": "inconclusive: 20.6 µM [activator, partial curve]"},
      {"smiles": "O=C(CN1C(=O)NC2(CCCCC2)C1=O)Nc1ccc2c(c1)OCCCO2", "Potency": "inconclusive: 11.6 µM [activator, partial curve]"},
      {"smiles": "CCCCCc1ccc(-c2ccc(=O)[nH]n2)cc1", "Potency": "inactive"},
      {"smiles": "CCOC(=O)c1c(C)[nH]c(C(=O)COC(=O)C23CC4CC(CC(Cl)(C4)C2)C3)c1C", "Potency": "inactive"},
      {"smiles": "CC(C)c1ccc(-c2noc(C3CCCN(S(C)(=O)=O)C3)n2)cc1", "note": "(centres undefined)", "Potency": "inconclusive: 23.1 µM [activator, single point]"},
      {"smiles": "O=C(CSCc1cccc(Br)c1)N1CCOCC1", "Potency": "inconclusive: 29.1 µM [activator, single point]"},
      {"smiles": "COc1ccc(CC(C)N2CCN(c3cccc(C(F)(F)F)c3)CC2)cc1OC", "note": "(centres undefined)", "Potency": "inactive"},
      {"smiles": "CCOc1ccc(N(CC(=O)N/N=C(\\C)c2cccc(NC(C)=O)c2)S(=O)(=O)c2ccccc2)cc1", "Potency": "inactive"},
      {"smiles": "COc1ccc(NC(=S)NC(=O)/C=C/c2ccco2)cc1", "Potency": "inactive"},
      {"smiles": "Clc1ccc(OCCSc2nnnn2C2CCCCC2)cc1", "Potency": "inconclusive: 17.8 µM [activator, single point]"},
      {"smiles": "COc1ccccc1NC(=O)N(Cc1ccccc1)c1ccccn1", "Potency": "inconclusive: 23.1 µM [activator, partial curve, poor fit]"},
      {"smiles": "Cc1ccc(SCCCn2cncn2)cc1", "Potency": "inactive"},
      {"smiles": "Cc1ccc(C)c(SCC(=O)NNC(=O)c2csc(N3CCOCC3)n2)c1", "Potency": "inactive"},
      {"smiles": "Fc1ccc(-n2nnc(-c3cccnc3)n2)cc1", "Potency": "inconclusive: 14.6 µM [activator, partial curve]"},
      {"smiles": "O=Cc1ccc(C(=O)OCC(=O)NCc2ccco2)cc1", "Potency": "inactive"},
      {"smiles": "CC(C)NC(=O)/C(C#N)=C/c1ccc2c(c1)OCCO2", "Potency": "inactive"},
      {"smiles": "O=C(Nc1ccccn1)Nc1cccs1", "Potency": "inconclusive: 35.5 µM [activator, single point]"},
      {"smiles": "c1ccc(-c2nnsc2-c2nc3ccccc3[nH]2)cc1", "Potency": "inactive"},
      {"smiles": "N#C/C(=C\\c1ccc(OCc2cccc(C(=O)O)c2)cc1)C(=O)NCc1ccco1", "Potency": "inconclusive: 0.73 µM [activator, partial curve]"},
      {"smiles": "COc1ccc(Cl)cc1C(=O)Nc1ccc2c(c1)OCCO2", "Potency": "inconclusive: 3.66 µM [activator, partial curve, poor fit]"},
      {"smiles": "COc1cc(/C=N/Nc2ccc(Cl)c(C(=O)O)c2)ccc1OC(=O)c1ccco1", "Potency": "inactive"},
      {"smiles": "Cc1ccc(CN2CCN(/N=C/c3ccc(Cl)c([N+](=O)[O-])c3)CC2)cc1", "Potency": "inactive"},
      {"smiles": "Cc1ccc(C(=O)Nc2nc(=O)n(C(=O)CC(C)C)s2)cc1", "Potency": "inactive"},
      {"smiles": "CC(C)c1nnc(NC(=O)c2cccs2)s1", "Potency": "active: 4.11 µM"},
      {"smiles": "O=C(C[C@H]1C/C=C\\C[C@H](NC(=O)OCC2c3ccccc3-c3ccccc32)C(=O)O[C@H](c2ccccc2)CNC1=O)N[C@H](CO)Cc1ccccc1", "Potency": "inconclusive: 20.6 µM [activator, partial curve, poor fit]"},
      {"smiles": "O=C(Nc1cccc2nsnc12)c1ccc2c(c1)OCCO2", "Potency": "inconclusive: 18.4 µM [activator, partial curve, poor fit]"},
      {"smiles": "O=C(Nc1ccccc1)C1=C[C@@H](C2CC2)C[C@@H](OCCCCO)O1", "Potency": "inconclusive: 16.4 µM [activator, partial curve]"},
      {"smiles": "S=c1sc2c(Cl)ncnc2n1-c1ccccc1", "Potency": "inactive"}
    ]}
  ]
}
